This note sets out measurements from paper PMC4336329 (PLoS ONE, 2015).

Hit rate of the full screen: of about 310,000 compounds, about 14,000 (4.5%) showed an effect of 50% or more. The effect is printed as a negative number. Some of the results follow.
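Note: peak tail current of the secondary pulse compared with the same well before compound.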

The experiment deals with human ether-à-go-go-related gene (hERG) potassium channel (human, UniProt Q12809). The experiment is described as follows: primary screen, population patch clamp on CHO cells stably expressing hERG.
human ether-à-go-go-related gene (hERG) potassium channel, sequence (Q12809 whole entry, looked up): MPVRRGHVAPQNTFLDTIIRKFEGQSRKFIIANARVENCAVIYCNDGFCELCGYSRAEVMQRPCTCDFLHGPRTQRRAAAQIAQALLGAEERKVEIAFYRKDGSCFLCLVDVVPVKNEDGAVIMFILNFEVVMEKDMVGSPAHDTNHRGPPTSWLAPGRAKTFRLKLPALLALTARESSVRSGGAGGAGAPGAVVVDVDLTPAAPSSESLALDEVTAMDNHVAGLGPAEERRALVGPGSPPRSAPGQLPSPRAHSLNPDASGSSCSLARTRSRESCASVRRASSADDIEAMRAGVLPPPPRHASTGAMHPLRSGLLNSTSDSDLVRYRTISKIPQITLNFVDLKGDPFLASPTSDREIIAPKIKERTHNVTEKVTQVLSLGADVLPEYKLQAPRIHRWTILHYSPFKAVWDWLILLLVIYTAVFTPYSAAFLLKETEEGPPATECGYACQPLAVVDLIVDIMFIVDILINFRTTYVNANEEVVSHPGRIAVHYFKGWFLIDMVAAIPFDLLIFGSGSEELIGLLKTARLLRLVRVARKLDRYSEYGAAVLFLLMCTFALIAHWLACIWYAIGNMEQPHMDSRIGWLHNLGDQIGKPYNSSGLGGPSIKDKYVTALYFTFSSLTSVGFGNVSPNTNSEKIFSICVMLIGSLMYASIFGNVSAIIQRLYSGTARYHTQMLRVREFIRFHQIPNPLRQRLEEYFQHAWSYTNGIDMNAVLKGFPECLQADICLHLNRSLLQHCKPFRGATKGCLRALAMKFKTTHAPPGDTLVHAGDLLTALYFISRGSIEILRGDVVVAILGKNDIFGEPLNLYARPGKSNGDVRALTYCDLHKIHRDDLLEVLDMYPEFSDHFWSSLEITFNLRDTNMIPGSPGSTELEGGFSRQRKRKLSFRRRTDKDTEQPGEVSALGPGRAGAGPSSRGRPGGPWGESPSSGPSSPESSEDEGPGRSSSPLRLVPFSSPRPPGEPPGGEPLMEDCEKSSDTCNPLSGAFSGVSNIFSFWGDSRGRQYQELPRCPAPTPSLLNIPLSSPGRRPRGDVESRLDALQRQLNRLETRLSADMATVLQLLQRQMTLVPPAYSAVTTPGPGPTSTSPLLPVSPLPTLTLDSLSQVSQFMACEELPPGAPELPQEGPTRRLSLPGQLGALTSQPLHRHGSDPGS
As for `Cc1oc(S(=O)(=O)N2CCCCC2)cc1NC(=O)Nc1ccc(F)cc1`, the “hERG current change (%, negative = inhibition) at 10uM” value came out at 3.43%. For the compound `Cl.Cn1nnnc1SCCNCc1cccnc1`, the “hERG current change (%, negative = inhibition) at 10uM” value was 4.95%.

For `COC(=O)c1ccc(NCC(=O)c2ccccc2)cc1`, the “hERG current change (%, negative = inhibition) at 10uM” value was 9.29%. As for `CCCN1CCN(CC(O)COC(c2ccc(OC)cc2)c2ccc(OC)cc2)CC1.O=C(O)C(=O)O` (centres unmarked), the “hERG current change (%, negative = inhibition) at 10uM” value is recorded as -30.2%.

In the case of `C=CCn1c(SCC(=O)NCc2ccco2)nc2sc3c(c2c1=O)CCCC3`, the “hERG current change (%, negative = inhibition) at 10uM” value came to 9.48%.

For the compound `CC(=O)N1CCCc2cc(S(=O)(=O)Nc3ccccc3C)ccc21`, the “hERG current change (%, negative = inhibition) at 10uM” value worked out at 25.1%. `c1cncc(C(c2nnnn2C2CCCC2)N2CCCC2)c1` (centres unmarked): the “hERG current change (%, negative = inhibition) at 10uM” value is listed as -23.9%. For `O=C(C1=COCCO1)N1CCN(c2nc3ccc([N+](=O)[O-])cc3s2)CC1`, the “hERG current change (%, negative = inhibition) at 10uM” value is recorded as -37.2%. As to `Cc1ccc(OCCCC(=O)Nc2nc3ccccc3[nH]2)cc1`, the “hERG current change (%, negative = inhibition) at 10uM” value is reported as 18.4%.

In the case of `COc1ccc(-c2cc(C)no2)cc1S(=O)(=O)NCC(C)c1ccccc1` (centres unmarked), the “hERG current change (%, negative = inhibition) at 10uM” value amounted to 4.35%.

On to `Cc1ccccc1C(=O)Nc1ccccc1-n1cccc1`, for which the “hERG current change (%, negative = inhibition) at 10uM” value worked out at 16%. As for `CN(C)/C=N/c1cc(=O)n(C)c(=O)n1Cc1ccccc1`, the “hERG current change (%, negative = inhibition) at 10uM” value worked out at 8.39%. To `Cc1ccccc1C(=O)NNC(=O)c1ccc2nc[nH]c2c1` belongs 4.53%; to `COc1nc(N/N=C/c2ccccc2F)nc(N2CCCCC2)n1`, -15.6%; to `Cc1ccc(C2=NOC(=O)/C2=C\c2ccccc2)cc1`, 7.86%. Turning to `CC(=O)Nc1ccc(C2=CC(=O)C[C@H](c3ccc(Cl)cc3)C2)cc1`, the “hERG current change (%, negative = inhibition) at 10uM” value is listed as 1.7%. In the case of `CC1(C)CC(=O)C(C2C3=C(CC(C)(C)CC3=O)Oc3ccccc32)C(=O)C1` (centres unmarked), the “hERG current change (%, negative = inhibition) at 10uM” value is reported as 18.9%. To `O=C(Nc1cccc(Cl)c1)N1CCN2C(=O)c3ccccc3C12c1ccccc1` (centres unmarked) belongs -24.3%. As for `COc1cc(NC(=O)N[C@@H](CCSC)C(=O)O)cc(OC)c1`, the “hERG current change (%, negative = inhibition) at 10uM” value is 6.91%. In the case of `O=C(CSCc1cccc(Br)c1)N1CCOCC1`, the “hERG current change (%, negative = inhibition) at 10uM” value worked out at 8.02%. Consider `COc1ccccc1N1CCN(C2CCC(C)CC2)CC1` (centres unmarked), for which the “hERG current change (%, negative = inhibition) at 10uM” value is given as 4.87%. With `COc1ccc(NC(=O)COc2cccc3c2CCN(Cc2cccnc2)C3=O)c(OC)c1`, the “hERG current change (%, negative = inhibition) at 10uM” value is -8.62%. For the compound `COc1ccc(NC(=O)C2CCCN2C(=O)NC2CCCCC2)cc1OC` (centres unmarked), the “hERG current change (%, negative = inhibition) at 10uM” value is -4.85%. For the compound `CC1CCC(NC(=O)c2ccc3nc[nH]c3c2)CC1` (centres unmarked), the “hERG current change (%, negative = inhibition) at 10uM” value is -7.76%. Turning to `Cc1ccc(SCc2ccc(C(=O)N3CCCCC3)cc2)cc1`, the “hERG current change (%, negative = inhibition) at 10uM” value was 1.58%. To `O=c1[nH]c(C2CCCN(S(=O)(=O)c3ccc(F)cc3)C2)nc2c1nnn2Cc1ccccc1` (centres unmarked) belongs 4.19%; to `COc1ccc(NC(=O)Nc2cccnc2)cc1`, -3.82%; to `Cc1ccsc1C(=O)C1CCCN(Cc2cc3ccccc3o2)C1` (centres unmarked), -23.7%. With `COc1cccc(/C=N/NC(=O)CNC(=O)c2ccc(S(=O)(=O)N3CCOCC3)cc2)c1OC`, the “hERG current change (%, negative = inhibition) at 10uM” value is -4.96%. `Nc1nc2n(n1)C(c1ccco1)CC(c1ccccc1)N2` (centres unmarked): the “hERG current change (%, negative = inhibition) at 10uM” value is -6.26%. Consider `O=C(Nc1nnc(Cc2ccc(Cl)cc2)s1)c1ccncc1`, for which the “hERG current change (%, negative = inhibition) at 10uM” value is -8.54%. Regarding `COc1cc(OC)c(C=O)c(OC(=O)N2CCOCC2)c1`, the “hERG current change (%, negative = inhibition) at 10uM” value turned out to be 17.4%. As to `Cn1c(CNC(=O)c2ccc(Cl)c(Cl)c2)nnc1SCC(=O)Nc1sc2c(c1C#N)CCCC2`, the “hERG current change (%, negative = inhibition) at 10uM” value worked out at 4.03%.

With `COc1cccc(CN(C)C(=O)c2cccc(S(=O)(=O)NCc3ccccc3)c2)c1OC`, the “hERG current change (%, negative = inhibition) at 10uM” value is -38%. As for `CC1CCCN(C(=O)c2ccc(Br)c(S(=O)(=O)N3CCOCC3)c2)C1` (centres unmarked), the “hERG current change (%, negative = inhibition) at 10uM” value is on record as -7.24%. In the case of `O=C(CN(C(=O)c1ccc2c(c1)OCCO2)c1ccccc1)NCC1CCCO1` (centres unmarked), the “hERG current change (%, negative = inhibition) at 10uM” value was 19.5%. Regarding `CCOc1ccc(C(C)NC(=O)c2cccs2)cc1OCC` (centres unmarked), the “hERG current change (%, negative = inhibition) at 10uM” value came to 7.74%. As for `O=C(CSc1nc(-c2ccccc2)nc2ccccc12)Nc1cccc(C(=O)O)c1`, the “hERG current change (%, negative = inhibition) at 10uM” value is listed as 8.91%. As to `COc1ccc(-c2ccc(SCc3ccccn3)nn2)cc1OC`, the “hERG current change (%, negative = inhibition) at 10uM” value came out at 1.59%. With `CC1CCc2c(sc(NC(=O)CCCn3cnc([N+](=O)[O-])n3)c2C(N)=O)C1` (centres unmarked), the “hERG current change (%, negative = inhibition) at 10uM” value is on record as -34%. With `CCOC(=O)c1sc(=NC(=O)c2ccc(OC(C)C)cc2)n(C)c1C`, the “hERG current change (%, negative = inhibition) at 10uM” value came out at 10.8%. With `Cn1cc(C(=O)C(=O)NC2CCCCC2)c2ccccc21`, the “hERG current change (%, negative = inhibition) at 10uM” value worked out at 1.04%. Turning to `COc1ccc(/C=C(\NC(=O)c2ccc(OC)c(OC)c2)C(=O)N2CCN(C)CC2)cc1`, the “hERG current change (%, negative = inhibition) at 10uM” value is -19.4%.

With `CC1Cc2ccccc2N1C(=O)CN1C(=O)NC(C)(CCc2ccccc2)C1=O` (centres unmarked), the “hERG current change (%, negative = inhibition) at 10uM” value is on record as -7.9%.
